From article PMC4336329 (PLoS ONE, 2015)
About 14,000 (4.5%) of roughly 310,000 compounds showed an effect of 50% or more. Effects have a minus sign here. The list shows a part of the results.

target: human ether-à-go-go-related gene (hERG) potassium channel (human, UniProt Q12809); experiment: primary screen, population patch clamp on CHO cells stably expressing hERG
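Further: peak tail current of the secondary pulse compared with the same well before compound.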

Chain of human ether-à-go-go-related gene (hERG) potassium channel (Q12809 whole entry, looked up): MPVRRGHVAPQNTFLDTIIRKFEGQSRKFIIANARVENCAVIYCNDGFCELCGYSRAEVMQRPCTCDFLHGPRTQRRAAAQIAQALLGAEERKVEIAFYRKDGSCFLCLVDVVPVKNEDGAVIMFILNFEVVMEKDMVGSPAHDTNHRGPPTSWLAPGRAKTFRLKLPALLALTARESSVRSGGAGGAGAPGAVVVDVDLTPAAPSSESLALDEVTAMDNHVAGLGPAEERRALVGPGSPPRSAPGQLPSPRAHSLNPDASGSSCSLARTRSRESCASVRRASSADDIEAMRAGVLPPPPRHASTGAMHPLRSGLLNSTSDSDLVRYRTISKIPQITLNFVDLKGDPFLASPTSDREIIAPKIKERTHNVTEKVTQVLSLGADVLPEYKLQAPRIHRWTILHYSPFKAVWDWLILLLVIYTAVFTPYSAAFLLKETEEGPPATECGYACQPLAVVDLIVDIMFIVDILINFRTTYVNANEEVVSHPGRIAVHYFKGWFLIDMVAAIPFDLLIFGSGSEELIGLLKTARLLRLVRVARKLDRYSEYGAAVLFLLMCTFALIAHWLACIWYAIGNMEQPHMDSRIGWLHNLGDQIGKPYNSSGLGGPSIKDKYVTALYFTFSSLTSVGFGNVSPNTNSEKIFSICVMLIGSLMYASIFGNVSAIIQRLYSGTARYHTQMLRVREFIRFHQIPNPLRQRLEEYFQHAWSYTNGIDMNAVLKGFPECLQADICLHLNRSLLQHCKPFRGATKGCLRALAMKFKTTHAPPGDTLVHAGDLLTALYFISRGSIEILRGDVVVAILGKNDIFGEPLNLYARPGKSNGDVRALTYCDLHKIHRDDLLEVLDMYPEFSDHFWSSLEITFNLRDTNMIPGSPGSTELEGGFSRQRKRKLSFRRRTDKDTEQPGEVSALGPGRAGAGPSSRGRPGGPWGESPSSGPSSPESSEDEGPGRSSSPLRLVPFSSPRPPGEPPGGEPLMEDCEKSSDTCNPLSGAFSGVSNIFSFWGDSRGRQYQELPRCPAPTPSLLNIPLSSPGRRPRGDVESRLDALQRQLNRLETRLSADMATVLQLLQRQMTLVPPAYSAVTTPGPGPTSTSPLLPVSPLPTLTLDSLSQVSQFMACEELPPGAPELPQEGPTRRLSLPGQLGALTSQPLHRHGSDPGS

| SMILES | hERG current change (%, negative = inhibition) at 10uM |
| --- | --- |
| NS(=O)(=O)c1ccc(NS(=O)(=O)/C=C/c2ccccc2)cc1 | 6.55% |
| Cc1c(NC(=O)Nc2c(Cl)cccc2Cl)c(=O)n(-c2ccccc2)n1C | -6.03% |
| O=C(COC(=O)Cc1n[nH]c(=O)c2ccccc12)Nc1ncc(Cl)cc1Cl | -20.6% |
| Clc1ccc2c(c1)CNc1c(ncnc1N1CCOCC1)O2 | -10.1% |
| CCc1sc(NC(=O)CN2CCC(C(N)=O)CC2)nc1-c1ccccc1 | -33.6% |
| CC(=O)N(CCCN(C)C)Cc1ccccn1 | 15.9% |
| CCN(CC)CCn1nc2c3c(cccc3c1=O)-c1ccccc1-2 | -70.2% |
| CC(=O)Nc1ccc(S(=O)(=O)N2CCN(CC3CC4C=CC3C4)CC2)cc1.O=C(O)C(=O)O (centres unmarked) | 1.05% |
| CCOC(=O)c1c(NC(=O)c2ccc(C)cc2)sc2c1CC(C)(C)NC2(C)C | -10.6% |
| COc1ccccc1NC(=O)c1c(Nc2ccccc2C)sc(C(=O)Nc2cccc(Cl)c2)c1N | 6.04% |
| CCOC(=O)C1CCN(S(=O)(=O)CCNC(=O)c2ccccc2)CC1 | -2.78% |
| CC1CCC(C(C)C)C(OC(=O)COC(=O)c2ccccc2N)C1 (centres unmarked) | 9.64% |
| Cc1ccc(-n2nnnc2Sc2ccc(S(=O)(=O)NCCN(C)C)cc2[N+](=O)[O-])cc1 | -8.17% |
| N#Cc1cnc2cc(-c3ccccc3)nn2c1N | 7.28% |
| O=C(CC1COc2ccccc2O1)Nc1ccccn1 (centres unmarked) | 9.43% |
| Cc1cc(NC(=O)c2cn(C3CCCCC3)c(=O)c3c2c2ccccc2n3C)no1 | 12.9% |
| O=C(CSc1nc(-c2ccccc2)nn1C(=O)c1ccccc1)Nc1cccc([N+](=O)[O-])c1 | 2.83% |
| COCc1nnc(NC(=O)CCCCCN2C(=O)c3ccccc3C2=O)s1 | 0.949% |
| CCCN(C(=O)CCl)C1=CCCCC1 | 32.5% |
| O=C(c1ccccc1)c1cn(CC(=O)N2CCCC2)c2ccccc12 | -8.1% |
| CC(C(=O)N=c1sc2ccccc2n1C)N1C(=O)C2CC=CCC2C1=O (centres unmarked) | -40.2% |
| Cc1cc(C(=O)N/N=C/c2ccc3ccccc3c2)n[nH]1 | 20.8% |

| SMILES | hERG current change (%, negative = inhibition) at 10uM |
| --- | --- |
| O=[N+]([O-])c1ccc(Cl)c(/C=N/n2c(-c3ccncc3)n[nH]c2=S)c1 | 18.3% |
| Cc1ccc2c(c1)-c1c(ssc1=S)C(C)(C)N2C(=O)CSc1nncn1C | -19.6% |
| O=C1C(Cc2cnc[nH]2)NC(=S)N1c1ccccc1 (centres unmarked) | 15.7% |
| COc1ccc(NC2CCCN(C(=O)COc3ccc(C)cc3)C2)cc1 (centres unmarked) | -22.5% |
| COc1ccc(NC(=O)CSc2nnc3ccc(-c4ccccn4)nn23)cc1OC | -3.98% |
| COc1ccc(CN2[C@@H](CC(=O)O)c3ccccc3S2(=O)=O)cc1 | 19.7% |
| CCN(CC)c1ccc(/C=N/NS(=O)(=O)c2cccc([N+](=O)[O-])c2)cc1 | 1.05% |
| C/C(=N\N1CCN(c2ccccc2)CC1)c1ccco1 | 12% |
| COC(=O)c1ccc(C(=O)Nc2nnc(-c3cccnc3)o2)cc1 | 23.4% |
| COc1ccc(C2C(C#N)=C(N)N(N(C)C)C3=C2C(=O)CC(C)(C)C3)cc1 (centres unmarked) | 3.38% |
| CC1CN(S(=O)(=O)c2ccc(F)cc2)CN1C(=O)N1CCOCC1 (centres unmarked) | 17.6% |
| COCCNC(=S)N/N=C/c1ccc(OCc2ccc(C(=O)OC)cc2)cc1 | 0.356% |
| COc1ccc(CC(=O)NC2CC(C)(C)NC(C)(C)C2)cc1OC.Cl | 16.9% |
| O=C1NC(c2cccc(Br)c2)=N/C1=C\c1ccco1 | -16.3% |
| Cc1cc(C)cc(NC(=O)C2C3C=CC4(O3)C2C(=O)N(CCCN2CCCC2)C4C(=O)NC2CCCC(C)C2C)c1 (centres unmarked) | 25.3% |
| CCC(CC)NC(=O)c1cc(S(=O)(=O)N2CCCCC2)ccc1N1CCOCC1 | -20.3% |
| CCc1nc(N2CCCCC2C)c2oc3ccccc3c2n1.Cl (centres unmarked) | 6.37% |
| CC(C(=O)O)c1ccc(C(=O)c2cccs2)cc1 (centres unmarked) | -5.25% |
| COc1cccc(C(=O)NC(=S)Nc2ccc3[nH]c(=O)[nH]c3c2)c1 | -70.3% |
| CCOc1ccc(N2C(=O)/C(=C\c3cccs3)C(=O)NC2=S)cc1 | 17.7% |
| CC1=CC(C)(C)N2C(=O)C3(C(C#N)=C(N)OC4=C3C(=O)CCC4)c3c(C)c(C)cc1c32 (centres unmarked) | 8.02% |
| Clc1ccc(-c2c[n+]3c(n2-c2ccccc2)SCC3)cc1.[Cl-] | -62.7% |

| SMILES | hERG current change (%, negative = inhibition) at 10uM |
| --- | --- |
| CC(O)[C@H]1CNC(=O)C(=O)N1CC1(c2ccccc2)CC1 (some centres unmarked) | 27.2% |
| Cc1c(NS(=O)(=O)c2ccc3nc(COc4ccccc4Cl)[nH]c3c2)c(=O)n(-c2ccccc2)n1C | -17.5% |
| Cc1ccc(C(C(=O)NC2CCCC2)N(Cc2ccc(F)cc2)C(=O)c2snc(C(N)=O)c2N)o1 (centres unmarked) | -24.2% |
| O=C(COC(=O)c1ccc(Br)o1)NC1CCCCC1 | 19.3% |
| COc1ccc(/C(C)=N/NC(=O)C2CC2)cc1 | -7.63% |
| COC(=O)c1ccccc1NC(=O)CSc1nc(C)cc(C)n1 | 10.5% |
| COc1cc2c(cc1NC(=S)NC(=O)/C=C/c1ccco1)oc1ccccc12 | 22.2% |
| O=C(NCC(c1ccco1)N1CCc2ccccc21)C(=O)Nc1ccccc1 (centres unmarked) | -1.69% |
| O=C(CSc1nc(-c2ccccc2)c(-c2ccccc2)[nH]1)Nc1ccc2c(c1)OCO2 | -8.24% |
| CCOc1ccc(NC(=O)Cn2nnc(-c3ccccc3F)n2)cc1 | -13.1% |
| CC(=O)c1c(C)[nH]c(C(=O)OC(C)C(=O)Nc2ccc(C)c(S(=O)(=O)N3CCOCC3)c2)c1C (centres unmarked) | -12.5% |
| CCN1C(=O)[C@H]2[C@@H](c3ccc(-c4ccc(Cl)c(Cl)c4)cc3)N[C@@](Cc3ccccc3)(C(=O)OC)[C@H]2C1=O.O=C(O)C(F)(F)F | 1.81% |
| COc1ccc(Br)c(C(=O)Nc2cccc(Cl)c2Cl)c1 | -0.634% |
| O=C(c1cccs1)c1cn(Cc2ccccc2Cl)c2ccccc12 | 14.5% |
| CC(O)Cn1c(N2CCCC2)nc2c1c(=O)n(C)c(=O)n2C (centres unmarked) | 14.1% |
| COc1cc2c(cc1OC)C(c1ccc([N+](=O)[O-])cc1)NCC2 (centres unmarked) | -20.3% |
| CC(NC(=S)Nc1ccc(Cl)cc1Cl)C(c1cccs1)N1CCCC1 (centres unmarked) | -17.9% |
| CS(=O)(=O)Nc1ccc(C(=O)Nc2ccccc2Sc2ccccc2)cc1 | -27.3% |
| CCC(Sc1nc2ccccc2s1)C(=O)Nc1nnc(C)s1 (centres unmarked) | -8.55% |
| COc1ccccc1/C=C/C=N/NC(=O)c1ccncc1 | 6.22% |
| CCN(CC(=O)NCc1cccs1)C(=O)/C=C/c1ccc(C)cc1 | -29.4% |
| CCOc1ccccc1NC(=O)Cn1c(=O)oc2cc(Cl)ccc21 | 21% |

| SMILES | hERG current change (%, negative = inhibition) at 10uM |
| --- | --- |
| CCCCCNC(=O)C(C#N)c1nc2ccccc2nc1N1CCCC1 (centres unmarked) | 12.5% |
| Cc1cc(C(=O)Nc2c(C)nn(Cc3ccccc3)c2C)on1 | 1.26% |
| CCOc1cc(/C=N/NC(=O)Cc2ccc(C(F)(F)F)cc2[N+](=O)[O-])ccc1O | -0.812% |
| CCOC(=O)N1CCN(CC(O)COc2c(OC)cccc2OC)CC1.Cl (centres unmarked) | 2.85% |
| O=C(NC1CCCN(Cc2ccccc2F)C1)C1CCC1 (centres unmarked) | 13.6% |
| COc1cccc(NC(=O)CN(C)S(=O)(=O)c2ccc3c(c2)CCC(=O)N3)c1 | -29.9% |
| COc1ccccc1CNC(=O)C1CCC(CNS(=O)(=O)c2cccc3cccnc23)CC1 (centres unmarked) | 19.7% |
| CC1CCCN(CCCNC(=O)c2cc3c(s2)-c2ccccc2OC3)C1 (centres unmarked) | -76.4% |
| CC1CCCC(C)N1C(=O)Cn1c(SCC(=O)NCc2ccc3c(c2)OCO3)nc2ccccc21 (centres unmarked) | -46.4% |
| COc1cc(C(=O)NCC2CCCO2)ccc1OCc1c(C)noc1C (centres unmarked) | 10.7% |
| CCOC(=O)N1CCN(C(=O)c2cnc(Nc3ccccc3OC)c3ccccc23)CC1 | -26.7% |
| CC(NC(=O)c1cc2c(s1)CCCC2)C(C)(C)C (centres unmarked) | -7.13% |
| C/C(CCc1ccco1)=N\NC(=O)CNc1c(Br)cc(Br)cc1Br | 37.6% |
| CN1CCc2c(C#N)c(N3CCCCC3)nc(NCc3ccccc3)c2C1 | -2.02% |
| CCOC(=O)N1CCN(C(=O)CNC(=O)Cn2cnc3ccccc3c2=O)CC1 | 16.5% |
| Cc1ccc(C)c(C(=O)CSc2nnnn2-c2cccnc2)c1 | -15% |
| COc1cccc(C(=O)NCCS(=O)(=O)NCCc2ccc(OC)c(OC)c2)c1 | -1.17% |
| CC1CCCC(NC(=O)COC(=O)Cc2c[nH]c3ccccc23)C1C (centres unmarked) | -14% |
| CC(C)(Cc1ccc(O)cc1)NC(=O)CC(=O)N/N=C/c1ccc(Cl)cc1 | 19.4% |
| O=c1[nH]c2ccccc2nc1N1CCOCC1 | -7.18% |
